# From PubChem BioAssay (NCATS)
# The shares of active, inactive and inconclusive entries below differ from those in the screen. For some assays here: Potencies of inconclusive entries are doubtful fits and often do not repeat. Activity calls are given as the source filed them. Unless noted, calls follow the shape of the dose curve; as a rule, active = well fitted curve in the direction sought with a large enough effect; inconclusive = small, poorly fitted or top-dose-only effect, or another doubt; inactive = no such curve, though single readings can be large; an effect the other way counts as inactive or inconclusive.
# Columns and labels:
# [1] = biological target: Glucagon-like peptide 1 receptor (Homo sapiens) (UniProt P43220); assay: qHTS of GLP-1 Receptor Agonists: LOPAC Validation (AID 624148); conditions: GLP-1R agonist cell assay; activation: at 46.1 µM (top of the series);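 also: 0% is about no effect; higher luminescence signal means agonism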
# UniProt P43220, sequence (P43220 whole entry, looked up): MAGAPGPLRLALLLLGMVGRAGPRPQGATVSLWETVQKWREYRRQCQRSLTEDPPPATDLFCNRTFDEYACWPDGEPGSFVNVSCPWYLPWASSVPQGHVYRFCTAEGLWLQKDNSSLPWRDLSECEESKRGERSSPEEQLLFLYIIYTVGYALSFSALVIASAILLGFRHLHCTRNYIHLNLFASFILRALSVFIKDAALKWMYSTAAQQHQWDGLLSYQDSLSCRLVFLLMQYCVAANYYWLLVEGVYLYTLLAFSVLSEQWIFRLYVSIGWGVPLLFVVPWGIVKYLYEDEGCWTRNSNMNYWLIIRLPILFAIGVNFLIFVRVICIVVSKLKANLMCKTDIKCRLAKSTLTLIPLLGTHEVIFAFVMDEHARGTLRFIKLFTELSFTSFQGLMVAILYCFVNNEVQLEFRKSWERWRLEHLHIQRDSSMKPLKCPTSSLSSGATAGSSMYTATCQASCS
# How it was run: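 HEK293 cells stably co-expressing GLP-1R and a cAMP-responsive luciferase reporter, plated 12 hours before compound, then incubated 4-6 hr at 37 deg C. Luminescence read 12 min after detection reagent.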
# [2] = biological target: Atrial natriuretic peptide receptor 2 (Homo sapiens) (UniProt P20594); assay: Natriuretic polypeptide receptor (hNpr2) antagonism - Pilot subtype selectivity assay (AID 1347050; calls by dose curve; also: % is scaled to controls: 0 for no effect and ±100 for the full control effect)
# UniProt P20594, sequence (P20594 whole entry, looked up): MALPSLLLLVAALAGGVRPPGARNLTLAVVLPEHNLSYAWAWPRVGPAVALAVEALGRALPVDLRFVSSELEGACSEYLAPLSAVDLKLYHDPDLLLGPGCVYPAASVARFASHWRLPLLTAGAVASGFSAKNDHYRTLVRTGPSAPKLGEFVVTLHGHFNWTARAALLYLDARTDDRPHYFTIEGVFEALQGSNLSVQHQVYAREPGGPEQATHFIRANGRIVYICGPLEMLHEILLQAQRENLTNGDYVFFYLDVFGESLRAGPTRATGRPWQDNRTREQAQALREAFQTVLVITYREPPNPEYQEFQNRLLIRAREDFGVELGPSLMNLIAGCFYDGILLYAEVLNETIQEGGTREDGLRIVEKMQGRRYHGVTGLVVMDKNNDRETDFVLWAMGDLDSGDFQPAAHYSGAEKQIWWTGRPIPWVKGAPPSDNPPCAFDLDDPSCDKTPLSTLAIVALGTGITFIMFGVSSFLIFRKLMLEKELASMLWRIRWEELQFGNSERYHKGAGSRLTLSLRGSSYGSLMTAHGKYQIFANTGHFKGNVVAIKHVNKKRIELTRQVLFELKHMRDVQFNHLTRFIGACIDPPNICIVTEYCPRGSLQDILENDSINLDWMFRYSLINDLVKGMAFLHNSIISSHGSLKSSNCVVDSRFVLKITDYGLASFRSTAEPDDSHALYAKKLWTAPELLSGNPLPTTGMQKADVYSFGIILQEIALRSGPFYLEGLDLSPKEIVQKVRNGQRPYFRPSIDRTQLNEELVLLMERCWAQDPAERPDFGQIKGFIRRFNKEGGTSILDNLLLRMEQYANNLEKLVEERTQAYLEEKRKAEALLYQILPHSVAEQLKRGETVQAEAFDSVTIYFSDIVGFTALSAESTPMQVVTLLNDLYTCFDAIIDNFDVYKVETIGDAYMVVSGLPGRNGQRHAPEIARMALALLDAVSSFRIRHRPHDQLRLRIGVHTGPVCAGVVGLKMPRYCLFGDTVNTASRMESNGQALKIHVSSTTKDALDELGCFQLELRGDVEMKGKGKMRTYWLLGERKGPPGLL
# How it was run: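 Luminescence from a genetically encoded cGMP luciferase biosensor in hNpr2-expressing HEK293 cells is read before and 20 min after adding 1 nM hNppC. Test compounds, in interplate 1:5 titrations, are added 30-50 min ahead of the agonist.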
# [3] = Primary qHTS for small molecule stabilizers of the endoplasmic reticulum resident proteome: Secreted ER Calcium Modulated Protein (SERCaMP) assay (AID 1508630); conditions: SH-SY5Y GLuc-SERCaMP (Gaussia luciferase released on ER calcium loss) secretion, thapsigargin, luminescence; activity change, negative = inhibition: at 38.4 µM (top of the series) unless noted; also: potency is read from the fitted curve at half-maximal effect
# How it was run: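 The SH-SY5Y reporter protocol was run at 3 concentrations up to 38.3 uM (primary) or 11 concentrations (follow-up): 16 h compound, 100 nM thapsigargin for 4 h, then extracellular luciferase luminescence.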
# [4] = qHTS Assay for Identification of Small Molecule Antagonists for NFkB Signaling Pathway (AID 895; active = well fitted inhibition curve with a large enough effect in the signal ratio, with a control signal flat, not every such curve was filed as active; inconclusive = small, poorly fitted or top-dose-only effect, or effect the other way, or a change in a side signal; the % refers to the signal ratio; also: % is scaled to controls: 0 for no effect and ±100 for the full control effect); conditions: NFkB beta-lactamase reporter cells, FRET ratio 460/530, stimulated with 10 pM TNF alpha; activity change, negative = inhibition: at 38.3 µM (top of the series)
# How it was run: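 ME-180 NFkB-bla cells (beta-lactamase under NFkB response element), plated overnight, treated with compound then 10 pM TNF alpha (about EC50) for 5 hrs at 37 C. LiveBLAzer FRET read at 460/530 nm emission, 405 nm excitation.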
# [5] = qHTS Assay for Identification of Small Molecule Antagonists for Thrombopoietin (TPO) Signaling Pathway (AID 918); conditions: TPO-dependent cell signaling reporter, antagonist mode; activity change, negative = inhibition: at 38.5 µM (top of the series); also: nearly all actives have a fitted effect of over 60% in size
# How it was run: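 Luminescence read-out: GPIIb-promoter luciferase in Ba/F3 cells carrying human TPO receptor. Compounds added with 26 pM TPO (EC50), 24 hrs, 37 C, 5% CO2; cells deprived of IL-3 overnight beforehand. Inhibition of signal scored.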
# [6] = biological target: Muscarinic acetylcholine receptor M1 (Rattus norvegicus) (UniProt P08482); assay: qHTS Assay for Antagonists of Acetylcholine Muscarinic M1 Receptor: Kinetic Measurement of Intracellular Calcium Response (AID 943); also: potency is read from the fitted curve at half-maximal effect; nearly all actives have a fitted effect of over 75% in size
# UniProt P08482, sequence (P08482 whole entry, looked up): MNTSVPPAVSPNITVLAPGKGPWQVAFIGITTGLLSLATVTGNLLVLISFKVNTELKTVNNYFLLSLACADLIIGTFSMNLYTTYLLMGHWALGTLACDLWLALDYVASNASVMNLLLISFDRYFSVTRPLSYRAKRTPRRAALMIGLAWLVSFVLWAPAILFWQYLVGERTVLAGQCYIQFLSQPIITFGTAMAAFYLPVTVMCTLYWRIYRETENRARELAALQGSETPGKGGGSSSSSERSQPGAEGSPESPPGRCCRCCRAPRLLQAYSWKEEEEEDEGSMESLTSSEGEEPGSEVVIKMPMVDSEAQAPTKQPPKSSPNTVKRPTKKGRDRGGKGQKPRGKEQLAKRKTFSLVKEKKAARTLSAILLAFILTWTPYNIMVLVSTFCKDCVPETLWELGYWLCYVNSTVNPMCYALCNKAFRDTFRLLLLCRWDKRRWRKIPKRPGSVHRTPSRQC
# How it was run: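 Read-out: peak over basal Fluo-4 fluorescence, kinetic at 1 Hz for 4 min after EC80 carbachol (100 nM final). Rat M1-CHO cells, dye loaded 1 h at 37C, compound added 10 min before agonist.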
# [7] = qHTS for differential inhibitors of proliferation of Plasmodium falciparum line GB4 (AID 1816); conditions: Potency: Plasmodium falciparum GB4 proliferation inhibition;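 also: potency is read from the fitted curve at half-maximal effect; parasite growth measured after 72 h incubation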
# [8] = qHTS for differential inhibitors of proliferation of Plasmodium falciparum line Dd2 (AID 1882); conditions: Potency: Plasmodium falciparum Dd2 proliferation inhibition;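 also: compound exposure of 72 h on infected erythrocytes; plate controls were DMSO vehicle for no effect and 0.29 µM artemisinin for full effect; nearly all actives have a fitted effect of over 65% in size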
# How it was run: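 RBC culture, 0.3% parasitemia / 2.5% Hct final; cpd added by pin tool in DMSO; 72 h, 37 C, 5% CO2; lysis buffer + SYBR Green I, o/n RT dark; FI 485/535; norm. to artemisinin 0.29 uM and DMSO.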
# [9] = qHTS for differential inhibitors of proliferation of Plasmodium falciparum line W2 (AID 1883); conditions: Potency: Plasmodium falciparum W2 proliferation inhibition;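 also: potency is read from the fitted curve at half-maximal effect; parasites grown with compound for 72 h before lysis and staining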
# [10] = biological target: RecQ-like DNA helicase BLM (Homo sapiens) (UniProt P54132); assay: qHTS Validation Assay for Inhibitors of Bloom's syndrome helicase (BLM) (AID 2364); also: potency is read from the fitted curve at half-maximal effect
# How it was run: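 50 nM BLM preincubated 15 min at room temperature with compound in pH 8.0 Tris buffer containing 2.5 ug/ml poly(dI-dC); started with 200 nM TAMRA/BHQ-2 forked duplex and 2 mM ATP (final). Unwinding read as TAMRA fluorescence increase, two reads 2 h apart.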
# [11] = biological target: ATP-dependent 6-phosphofructokinase (Trypanosoma brucei brucei) (UniProt O15648); assay: qHTS Validation Assay to Find Inhibitors of T. brucei phosphofructokinase (AID 485368); conditions: activity change, negative = inhibition: at 57.5 µM (top of the series); also: potency is read from the fitted curve at half-maximal effect
# UniProt O15648, sequence (O15648 whole entry, looked up): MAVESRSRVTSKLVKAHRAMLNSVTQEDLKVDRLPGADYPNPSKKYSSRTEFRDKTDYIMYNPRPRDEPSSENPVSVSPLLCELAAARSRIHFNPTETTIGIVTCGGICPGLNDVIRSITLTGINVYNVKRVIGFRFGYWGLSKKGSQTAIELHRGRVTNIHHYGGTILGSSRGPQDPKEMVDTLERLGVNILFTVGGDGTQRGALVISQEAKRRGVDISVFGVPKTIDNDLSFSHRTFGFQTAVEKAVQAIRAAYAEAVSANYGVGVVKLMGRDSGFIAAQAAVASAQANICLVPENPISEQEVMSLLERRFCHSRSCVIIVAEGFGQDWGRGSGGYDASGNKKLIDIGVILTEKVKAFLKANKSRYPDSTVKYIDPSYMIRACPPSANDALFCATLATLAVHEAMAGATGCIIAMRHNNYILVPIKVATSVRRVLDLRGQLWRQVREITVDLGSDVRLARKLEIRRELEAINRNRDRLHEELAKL
# How it was run: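 Inhibition derived from concentration-response curves of luminescence, ranked by r2, response size and curve class; the underlying reaction used 1.25 nM PFK, 0.1 mM ATP and 0.5 mM F6P, 45 min, room temperature.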
# [12] = biological target: Chromobox protein homolog 1 (Homo sapiens) (UniProt P83916); assay: qHTS Validation Assay for Inhibitors of HP1-beta Chromodomain Interactions with Methylated Histone Tails (AID 488953); also: potency is read from the fitted curve at half-maximal effect; nearly all actives have a fitted effect of over 50% in size
# UniProt P83916, sequence (P83916 whole entry, looked up): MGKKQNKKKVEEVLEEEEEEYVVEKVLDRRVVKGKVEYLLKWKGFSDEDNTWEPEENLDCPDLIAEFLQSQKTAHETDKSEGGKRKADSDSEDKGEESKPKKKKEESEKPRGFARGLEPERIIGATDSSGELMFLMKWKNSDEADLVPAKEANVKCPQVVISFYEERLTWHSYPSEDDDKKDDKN
# How it was run: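 AlphaScreen proximity readout: streptavidin donor and Ni-chelate acceptor beads, 10 ug/mL final, 30 min dark, RT. Complex of 50 nM HP1-beta and 50 nM b-H3(1-18)K9me3 formed 30 min, then compound-treated 30 min; PBS pH 7.4/0.01% Tween-20.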
# [13] = biological target: D(1A) dopamine receptor (Homo sapiens) (UniProt P21728); assay: HTS Assay for Allosteric Agonists of the Human D1 Dopamine Receptor: Primary Screen for Antagonists (AID 488983); conditions: D1 receptor cell assay, antagonist mode, qHTS titration; activity change, negative = inhibition: at 41.8 µM (top of the series);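 also: calcium flux response to an EC80 dopamine challenge measured with no-wash dye; % is scaled to controls: 0 for no effect and ±100 for the full control effect; nearly all actives have a fitted effect of over 65% in size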
# UniProt P21728, sequence (P21728 whole entry, looked up): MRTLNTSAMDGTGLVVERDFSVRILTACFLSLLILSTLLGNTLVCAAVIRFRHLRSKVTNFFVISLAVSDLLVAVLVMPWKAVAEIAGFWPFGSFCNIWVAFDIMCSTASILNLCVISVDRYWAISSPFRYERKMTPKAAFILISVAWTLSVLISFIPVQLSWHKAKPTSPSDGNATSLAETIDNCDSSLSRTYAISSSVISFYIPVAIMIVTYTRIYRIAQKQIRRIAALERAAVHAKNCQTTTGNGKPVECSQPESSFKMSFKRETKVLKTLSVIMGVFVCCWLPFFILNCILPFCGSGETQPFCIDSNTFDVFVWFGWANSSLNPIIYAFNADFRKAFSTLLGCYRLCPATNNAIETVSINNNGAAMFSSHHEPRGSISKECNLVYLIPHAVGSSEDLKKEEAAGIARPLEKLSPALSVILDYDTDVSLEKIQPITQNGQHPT
# How it was run: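 Calcium flux readout, no-wash dye, inducible HEK293 T-REx D1 line (force-coupled). Compound added after 10 s baseline, 180 s kinetic read; then dopamine at EC80, further 180 s read.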
# [14] = biological target: Atrial natriuretic peptide receptor 1 (Homo sapiens) (UniProt P16066); assay: Natriuretic polypeptide receptor (hNpr1) antagonism - Pilot CMLD screen (AID 1347052; calls by dose curve;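 also: cGMP level read as GloSensor luciferase luminescence after agonist stimulation; potency is read from the fitted curve at half-maximal effect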)
# UniProt P16066, sequence (P16066 whole entry, looked up): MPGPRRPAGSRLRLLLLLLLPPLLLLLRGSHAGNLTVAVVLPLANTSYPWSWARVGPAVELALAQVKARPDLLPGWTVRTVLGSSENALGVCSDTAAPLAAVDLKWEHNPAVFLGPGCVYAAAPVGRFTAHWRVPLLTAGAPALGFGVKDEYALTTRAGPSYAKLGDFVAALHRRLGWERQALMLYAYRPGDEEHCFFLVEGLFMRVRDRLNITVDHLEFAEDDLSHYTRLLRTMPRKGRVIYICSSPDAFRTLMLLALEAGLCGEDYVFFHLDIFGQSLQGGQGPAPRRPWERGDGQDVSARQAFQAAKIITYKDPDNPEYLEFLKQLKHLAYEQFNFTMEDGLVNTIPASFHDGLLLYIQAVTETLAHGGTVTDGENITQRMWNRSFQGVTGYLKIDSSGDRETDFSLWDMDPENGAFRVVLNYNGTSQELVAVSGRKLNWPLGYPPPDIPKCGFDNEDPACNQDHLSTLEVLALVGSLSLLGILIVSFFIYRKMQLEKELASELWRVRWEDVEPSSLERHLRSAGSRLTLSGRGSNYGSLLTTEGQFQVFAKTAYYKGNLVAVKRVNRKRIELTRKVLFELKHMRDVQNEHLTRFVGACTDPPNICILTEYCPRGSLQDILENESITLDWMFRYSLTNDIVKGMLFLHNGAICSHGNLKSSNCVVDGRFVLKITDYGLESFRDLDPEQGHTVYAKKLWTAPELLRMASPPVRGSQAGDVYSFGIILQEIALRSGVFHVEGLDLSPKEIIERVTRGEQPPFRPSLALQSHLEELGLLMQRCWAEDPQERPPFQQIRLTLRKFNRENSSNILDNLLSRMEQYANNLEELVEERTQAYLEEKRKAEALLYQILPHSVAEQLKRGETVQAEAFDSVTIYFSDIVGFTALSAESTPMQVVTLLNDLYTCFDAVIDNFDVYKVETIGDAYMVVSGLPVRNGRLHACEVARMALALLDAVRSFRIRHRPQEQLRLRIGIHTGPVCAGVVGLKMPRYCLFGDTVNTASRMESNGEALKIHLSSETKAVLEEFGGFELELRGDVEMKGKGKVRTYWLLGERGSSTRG
# Tags tell the direction and shape of the fitted curve.
smiles,measurement,setting,value
CC(C)CC(NP(=O)(O)O[C@@H]1O[C@@H](C)[C@H](O)[C@@H](O)[C@H]1O)C(=O)NC(Cc1c[nH]c2ccccc12)C(=O)O (some centres not stated),activation,[1],inconclusive: 89.9% [activator]
same,Potency,[2],inactive
same,Potency,[3],"inconclusive: 31.6 µM [inhibitor, single point]"
O=C(O)C1=CCCN(CCON=C(c2ccccc2)c2ccccc2)C1,Potency,[4],inactive
same,"activity change, negative = inhibition",[5],inconclusive: -6.62% [phenotype inactive]
same,Potency,[6],"inconclusive: 25.1 µM [inhibitor, partial curve, poor fit]"
same,Potency,[7],"inconclusive: 15.8 µM [inhibitor, partial curve, poor fit]"
same,Potency,[8],inactive
same,Potency,[9],active: 5.62 µM
same,Potency,[10],"inconclusive: 0.0282 µM [inhibitor, full curve, poor fit]"
same,Potency,[11],"inconclusive: 0.169 µM [activator, full curve, poor fit]"
same,Potency,[12],"inconclusive: 0.0238 µM [inhibitor, full curve, poor fit]"
same,Potency,[13],inactive
same,Potency,[2],inactive
same,Potency,[3],"inconclusive: 35.5 µM [inhibitor, partial curve]"
CCOC(=O)OC[C@H]1O[C@H](c2ccccc2)C=C[C@H]1OC(=O)OCC,Potency,[14],"inconclusive: 0.0422 µM [inhibitor, full curve, poor fit]"
COC(=O)C1=C(C(=O)OC)[C@@H]2Nc3ccccc3[C@@]23C[C@@H](C(=O)OC)N(C(=O)NC2CCCC2)C3=N1,Potency,[14],"inconclusive: 0.106 µM [inhibitor, single point]"
